Laboratory results from the supplement of paper PMC12217912.
The list shows a part of the results. The full chains were built here from the parent and the listed change. Values near 0.05 are background.

B1: TEV protease; numbered along this chain (parent)
chain: MGESLFKGPRDYNPISSSICHLTNESDGHTTSLYGIGFGPFIITNKHLFRRNNGTLVVQSLHGVFKVKDTTTLQQHLVDGRDMIIIRMPKDFPPFPQKLKFREPQREERICLVTTNFQTKSMSSMVSDTSCTFPSGDGIFWKHWIQTKDGQCGSPLVSTRDGFIVGIHSASNFTNTNNYFTSVPKNFMELLTNQEAQQWVSGWRLNADSVLWGGHKVFMVKPEEPFQPVKEATQL

Variants of: B1
Experiment: raw area under fraction-flipped curve 0-4 h after induction (AUC4h, not background-subtracted), DNA-recorder readout of cleavage of the substrate (dimensionless); higher = more cleavage of the substrate by the protease variant
Conditions: temperature: 34 °C; time window: 0-4 h after rhamnose induction
Method: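 In vivo DNA recorder in E. coli TOP10(DE3) ΔrhaA at 34 °C. Each TEVp single-site mutant (parent TEVp 0) is paired with a single-site variant of the 7-mer TEVs (canonical ENLYFQ|S). The substrate sits between flexible linkers in a Bxb1-sfGFP-TEVs-SsrA fusion, so cleavage stabilises Bxb1 and speeds flipping of a recombination array, read by NGS. The value is the raw area under the fraction-flipped curve over 0-4 h after rhamnose induction (AUC4h), with ≥20 reads per time point. It is not background-subtracted; inactive controls average about 0.047.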
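Further: Bxb1 expression induced with 0.2% (w/v) L-rhamnose at OD600 near 0.5, cultures sampled hourly, flipped fraction per protease–substrate barcode pair counted by paired-end Illumina sequencing.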

Variant | area with substrate ENLYFAS | area with substrate ENLYFCS | area with substrate ENLYFDS | area with substrate ENLYFES | area with substrate ENLYFHS | area with substrate ENLYFIS | area with substrate ENLYFMS | area with substrate ENLYFPS | area with substrate ENLYFRS | area with substrate ENLYFSS | area with substrate ENLYFTS | area with substrate ENLYFWS | area with substrate ENLYFFS | area with substrate ENLYFKS | area with substrate ENLYFLS | area with substrate ENLYFNS | area with substrate ENLYFYS | area with substrate ENLYFVS | area with substrate ENLYFGS
V126Y | 0.0604 | 0.0473 | 0.0658 | 0.0718 | 0.064 | 0.0626 | 0.0631 | 0.0575 | 0.0591 | 0.0618 | 0.0653 | 0.0568 | – | – | – | – | – | – | –
V126A | 0.0575 | 0.0575 | 0.0537 | 0.0381 | 0.0578 | 0.0517 | 0.0609 | 0.0648 | 0.0612 | – | 0.0568 | 0.0505 | 0.0468 | 0.057 | 0.054 | 0.0568 | 0.0605 | – | –
S127E | 0.065 | 0.0478 | – | 0.0716 | 0.05 | 0.059 | 0.0724 | 0.058 | 0.0584 | 0.0627 | 0.0539 | 0.0568 | 0.0698 | 0.0673 | – | – | – | 0.0308 | –
S127K | 0.0669 | 0.0489 | – | 0.0866 | 0.0628 | 0.052 | 0.0704 | 0.0617 | – | 0.0424 | – | – | 0.0717 | 0.0547 | – | – | – | 0.0701 | 0.048
G150H | 0.0526 | 0.0762 | 0.0608 | 0.0536 | 0.0519 | 0.0598 | 0.0565 | 0.0617 | 0.0624 | – | 0.057 | – | 0.0823 | – | 0.0708 | 0.0671 | 0.0554 | 0.0623 | 0.0583
F133K | 0.053 | – | – | 0.0377 | 0.0669 | 0.0656 | – | 0.0556 | 0.0948 | 0.0645 | 0.0818 | 0.0506 | – | 0.0609 | – | – | 0.0624 | – | –
I145K | 0.045 | 0.0533 | 0.0626 | 0.0485 | 0.0694 | 0.0625 | – | 0.0543 | 0.0789 | 0.0519 | – | 0.0637 | 0.0829 | 0.0533 | 0.0703 | – | 0.0599 | 0.0562 | 0.0522
S154H | 0.077 | – | 0.0519 | 0.0627 | – | 0.0544 | 0.0624 | 0.056 | – | – | 0.0652 | 0.0513 | 0.0647 | – | – | – | 0.0497 | 0.0604 | –
P155D | 0.043 | 0.0482 | 0.0449 | 0.0639 | – | 0.0516 | 0.0473 | 0.0387 | 0.0466 | 0.0511 | 0.0417 | 0.0476 | 0.0537 | 0.0534 | 0.0469 | 0.0535 | 0.0532 | 0.0375 | 0.0318
P155K | 0.0356 | 0.0362 | 0.0464 | 0.0493 | 0.0498 | 0.0534 | 0.0524 | 0.0466 | 0.0545 | – | 0.041 | 0.0538 | – | 0.0468 | 0.0549 | – | – | 0.0127 | –
D161W | 0.0488 | – | 0.0514 | 0.0514 | 0.0452 | 0.0503 | 0.0525 | 0.0449 | 0.0568 | 0.0468 | 0.0452 | 0.0581 | 0.0595 | 0.0444 | 0.0572 | 0.0512 | – | 0.0273 | 0.0537
D149Y | 0.0458 | 0.0453 | 0.074 | 0.0626 | 0.0629 | 0.0488 | 0.0547 | 0.0612 | 0.0608 | 0.0538 | 0.0437 | 0.0679 | 0.0652 | – | 0.0501 | 0.0593 | 0.0532 | 0.0676 | 0.0639
